Test [1] deals with BRCA1 (human (endogenous in HeLa)) (UniProt P38398). Kind of test: co-IP; 2 mg HeLa whole cell protein extract immunoprecipitated with anti-BRCA1 or IgG; washed twice with TNE150 + 0.1% NP-40 and once with TNE50 + 0.1% NP-40; blot with anti-PRMT1.
Test [2] has as its target GST-BRCA1 1021–1552 (human) (UniProt P38398). The experiment in a line: pull-down; 500 ng GST-BRCA1 constructs on beads rotated with 2 mg HeLa whole cell protein extract in lysis buffer, 4°C overnight; washed twice with TNE150 + 0.1% NP-40 and once with TNE50 + 0.1% NP-40; blot with anti-PRMT1; only the target purified.
Test [3] concerns the target T1, GST-BRCA1 1501–1861 (human) (UniProt P38398).
T1 sequence: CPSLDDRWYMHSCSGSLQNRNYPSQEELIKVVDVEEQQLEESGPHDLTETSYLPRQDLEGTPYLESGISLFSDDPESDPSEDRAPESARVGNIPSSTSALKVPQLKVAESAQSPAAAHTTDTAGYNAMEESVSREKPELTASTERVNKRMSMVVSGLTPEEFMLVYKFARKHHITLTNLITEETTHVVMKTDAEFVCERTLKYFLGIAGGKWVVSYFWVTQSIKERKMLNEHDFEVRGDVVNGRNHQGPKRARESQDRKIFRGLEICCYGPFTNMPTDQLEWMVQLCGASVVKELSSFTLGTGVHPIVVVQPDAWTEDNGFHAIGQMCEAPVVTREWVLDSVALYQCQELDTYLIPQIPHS
Described as above.

Amino acid sequences for entries named in this document (tags omitted).
UniProt Q99873: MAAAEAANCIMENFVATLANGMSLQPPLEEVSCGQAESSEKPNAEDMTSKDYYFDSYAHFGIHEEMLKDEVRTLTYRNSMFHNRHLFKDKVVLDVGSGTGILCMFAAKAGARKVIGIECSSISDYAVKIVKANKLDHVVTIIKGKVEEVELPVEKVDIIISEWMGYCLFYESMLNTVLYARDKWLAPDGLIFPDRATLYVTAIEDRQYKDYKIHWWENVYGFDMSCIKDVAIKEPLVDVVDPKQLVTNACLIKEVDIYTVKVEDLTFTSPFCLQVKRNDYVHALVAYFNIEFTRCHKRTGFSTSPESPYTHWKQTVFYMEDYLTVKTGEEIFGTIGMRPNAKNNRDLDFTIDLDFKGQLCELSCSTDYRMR

Another test has as its target GST-BRCA1 1–500 (human) (UniProt P38398). Described as above.
Test [4] concerns the target GST-BRCA1 452–1079 (human) (UniProt P38398). Described as above.
For test [5], the target named is GST-BRCA1 504–802 (human) (UniProt P38398). Described as above.
Test [6] addresses T2, GST-BRCA1 697–1276 (human) (UniProt P38398).
T2 sequence: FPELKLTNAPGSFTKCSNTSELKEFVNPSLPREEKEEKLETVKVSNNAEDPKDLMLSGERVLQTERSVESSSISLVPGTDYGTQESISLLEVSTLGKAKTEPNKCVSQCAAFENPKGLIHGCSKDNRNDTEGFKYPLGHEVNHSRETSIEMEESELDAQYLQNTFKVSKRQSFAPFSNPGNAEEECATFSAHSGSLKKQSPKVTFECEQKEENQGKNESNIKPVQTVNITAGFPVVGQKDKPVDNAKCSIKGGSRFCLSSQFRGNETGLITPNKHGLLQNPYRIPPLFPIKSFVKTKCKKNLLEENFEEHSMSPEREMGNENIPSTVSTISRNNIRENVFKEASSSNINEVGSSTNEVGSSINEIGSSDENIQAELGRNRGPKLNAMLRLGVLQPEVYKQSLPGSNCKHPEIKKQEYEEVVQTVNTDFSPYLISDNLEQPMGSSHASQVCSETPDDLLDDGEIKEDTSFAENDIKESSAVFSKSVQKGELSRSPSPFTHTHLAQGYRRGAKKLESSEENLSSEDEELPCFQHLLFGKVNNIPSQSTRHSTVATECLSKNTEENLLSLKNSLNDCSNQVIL
Described as above.

Drawing on PMC2894074, this text covers binding for 1 substance.

No constants are given. Whether binding was seen depends on the method and setting. In cells and extracts the contact can be indirect. Some entries that bind do so weakly or less than the wild type. For some of these results: Tags and fused reporters may be left off the sequences shown.

Take “PRMT1 (from UniProt Q99873 1-371) (enzyme)”: the binding result in test [1] is reported as “binds”; in test [2], “no binding”; in test [3], “no binding”; with GST-BRCA1 1–500 (human) it was “no binding”; in test [4] it was “no binding”; in test [5], “binds”. The binding entry in test [6] is recorded as “no binding”.
